From the RNAGym collection of RNA variant scans (doi:10.1073/pnas.2313332121)
Variants at the background level are over-represented here.

B1: TPR 5TU (parent)
chain: GGAUCUUCUCGAUCUAACAAAAAAGACAAAUCUGCCACAAAGCUUGAGAGCAUCUUCGGAUGCAGAGGCGGCAGCCUUCGGUGGCGCGAUAGCGCCAACGUUCUCAACUAUGACACGCAAAACGCGUGCUCCGUUGAAUGGAGUUUAUCAUG

Variants of: B1
Assay: polymerase ribozyme fitness, log enrichment relative to wild type (log ratio); higher = more active; in vitro selection for triplet polymerase activity
Procedure, shortened: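 Genotype fitness is the logarithm of its enrichment divided by wild-type enrichment, using inverse-variance-weighted averages of replicates. That logarithm is base 2. Enrichment was measured by Illumina sequencing of input and output libraries from one triplicate in vitro selection round, with frozen incubation at −7 °C, on PCR-built, transcribed mutant libraries of each subunit of a heterodimeric triplet polymerase ribozyme, retaining genotypes with ≥10 input reads and ≥1 read per output.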

Variant	polymerase ribozyme fitness (log ratio)
C8U U44G U55A C79U G88A A110U	≤ -4.2
U9A C76U C85U	≤ -4.2
U9C U55G C57G G74A G84A C123U G128U	≤ -4.2
C8A A19U C54U C93A C95U U134A U144A	≤ -4.2
C8G C38A C54A G62A C149U	≤ -4.2
C8A C10U U13C A19G G46A G50A A52U C87G A107G C123A A138G	≤ -4.2
C8U C54U U56C C85A G92C	≤ -4.2
U9A C36A C72G G92A C129A	≤ -4.2
C8U U78G C85U C105U A113C A137C	≤ -4.2
U9C A22U U53G C79U	≤ -4.2
U7G G11C A29C U82G C95U U109G	≤ -4.2
U9A G42A G59A A60G A66G C103G C105G A106C G152A	≤ -4.2
U7G C10A A12U A47U C54G C96A	≤ -4.2
C8U C43U U44A G92U A113U U148C	≤ -4.2
C8A G25C C76A G83A A119G	≤ -4.2
U7G C8G A39C A52C U53A U55A C95U A98G	≤ -4.2
C8U G88C	≤ -4.2
U9A U15G A41U G50U C69G G70A C108G	≤ -4.2
C8A G34C U56A G86A G112U A119U G128C G143A	≤ -4.2
C8G A21C C93A U102A C108G G141U	≤ -4.2
C8U A39G U53C G74C	≤ -4.2
C8U C75A G86U A91U A122G G136A	≤ -4.2
C8U A37U U61A G70A C96U	≤ -4.2
U7G C18G A39U U61A U90G U102C A119U G124A C125U A142U	≤ -4.2

Variant	polymerase ribozyme fitness (log ratio)
C8A A22G U56A C57U C85G	≤ -4.2
C8A C51G	≤ -4.2
C8A C18G C85G G92U C99G	≤ -4.2
C8A G11A G50C U82A G83C	≤ -4.2
C8U U44A A52U C75U C85U C95U U104C A138G G140U	≤ -4.2
U9G A23C U56A A73U G86C	≤ -4.2
U9A A17U C35A G58A G80U A91G A150U	≤ -4.2
U9C C10U A16U A19C C85G G94C C105U A106U	≤ -4.2
C8A A26G A49G G62C C85U C114U	≤ -4.2
C8A C10U C75A G86A A98U A138C	≤ -4.2
U9C C14A C27A A40C U45A C93G A120G	≤ -4.2
C8U U53A C57G G88A C95G G126U C131U U146C	≤ -4.2
C8A C32G G65U A73G C96G	≤ -4.2
C8G C79A A91U A107C G124C U144C	≤ -4.2
C8U G59A C116U	-3.27
C8G A21G A41U U44G C87A C108U C149U	≤ -4.2
C8A A28U C79U C93U C105U	≤ -4.2
U9C A16U G86C C108U C118G G133U	≤ -4.2
C8G G58C G62C A91U C93A C96G	≤ -4.2
C8U C10G C35U U45A G50A C85A G94A G117U C132G	≤ -4.2
C8U U13G A40C A64C C69G	≤ -4.2
C8A U53A G92A A107U	≤ -4.2
U9A A26G	≤ -4.2
C8G C93U C95U	≤ -4.2

Variant	polymerase ribozyme fitness (log ratio)
C8G U9C C14G U44G G50A	≤ -4.2
C8G A21U C35G U45C C108G U148G	≤ -4.2
U9C A30U C51G C57G C96A A98U C105G A142G	≤ -4.2
C8U U55A G71A G81C C95G C125U	≤ -4.2
U9C C93G G141C	≤ -4.2
C8G A24C A30U A37C C116U	≤ -4.2
C8G G65A G71C C96U A120G G126A	≤ -4.2
U9A C14A C38A C125G	≤ -4.2
C8U A37C A41C C95A A150G	≤ -4.2
C8U C35A C72U C76U G88A G92U A121U	≤ -4.2
C8A C43U G46A A73G C85U U134G U151A	≤ -4.2
C8A A12G	-3.98
C8U C51U G84C	≤ -4.2
C8G A12C A19U C57U C72G C87G C108U A120C	≤ -4.2
U9C A41C A49G U109C G136U	≤ -4.2
C8U U9G G70A C76A C87G A89C	≤ -4.2
C8G C54U G59C G81U C96A U144C	≤ -4.2
U9C C27U A30C G34A G50C A91G C132G	≤ -4.2
C8G A30U A47G G80U A91U C99U A110G U145A	≤ -4.2
C8G C54G G94C A98G	≤ -4.2
U9G A16U A64U C85G U135C U144G A150U	≤ -4.2
C8A C14U G50C C57U G68A	≤ -4.2
C8U C14G A17G U90A C149U	≤ -4.2
U9C U33G A52C C93G A110U	≤ -4.2

Variant	polymerase ribozyme fitness (log ratio)
U7G U9C C14G A19U C96G A107G	≤ -4.2
C8G A26C A39G G50U G92A C118A U148G	≤ -4.2
C8G A20U A21U A30G U31A A60C G62A C131U	≤ -4.2
C8G U53C G58C C79U A89G U139C	≤ -4.2
U9A U15C C35U G71A C72U U77G C87A A119U G124C	≤ -4.2
C8A G50A C54U G81U A98U A137C A147C	≤ -4.2
U9A A39U G48A G84U C99A G117U	≤ -4.2
C8U G58U A60G A137C	≤ -4.2
U9C A28U A30C U61A G88A A91U G92A A119U	≤ -4.2
U9A C54A	≤ -4.2
U9A A16C C18G A19G U33C C43U A47C U61G A64C C96G U104G A119G A120G	≤ -4.2
C8U A16C G46A A52G C85U C93A	≤ -4.2
C8G A66U A91U G117U A120G G136A A137C U139G U144C	≤ -4.2
C8G A24G C54U G68A G71A A91U C95A	≤ -4.2
C8U G62A A97U A106U C116G G124C	≤ -4.2
C8A C14G A21G A28C G70A C75A G83A U146C	≤ -4.2
C8U G48C G58U A66C G81A U151A	≤ -4.2
U9C A30G C54U C75A C96U C123U	≤ -4.2
U7G G11C U33C A64U C96A A122G G124A G140U	≤ -4.2
U9C A16U A19U U31A C35U A49U	≤ -4.2
U9A A66G C75A G84A U146G	≤ -4.2
U7G C35G A40U C57G C85U A97G U102C A106U	≤ -4.2
C8G A52U U77A G88C	≤ -4.2
C8G A12G G42C U82A C95U C108U G136A G143A A150U	≤ -4.2

Variant	polymerase ribozyme fitness (log ratio)
U9A G141C	-3.23
C8U A12C C35U A49C U53G C75G G92A A119U A120G G133U A138C	≤ -4.2
U9A A20C A23U U31G A47C G50U G58A C85U A91C	≤ -4.2
C8U C38A A52C U55A G68A G83U A138G	≤ -4.2
U9A A23U G48C C79G C93G	≤ -4.2
U9A A26U G46C G48A A60G C69A C72A G80C	≤ -4.2
U9A U13G C32G C51G G70U U127G	≤ -4.2
C8A G48A C54A G86A	≤ -4.2
C8A A12G A17G U56A A97U A147C	≤ -4.2
C8U A17U C93U C105U	≤ -4.2
U7G A64U C93G C95U C103G	≤ -4.2
C8A C51U A73C C87A C103G U139C	≤ -4.2
C8G U9C C35U A49C U53A G67A C87A A115G G141A C149G	≤ -4.2
C8U A12G A28C C38U C57G C95U	≤ -4.2
C8G A26C G50A C95A A98G A115U G136C	≤ -4.2
U9C G42U U55A C96G	≤ -4.2
C8G A12U C36A A52U G83A G126C A138U	≤ -4.2
C8A C32A G59C C85G C95U A106U A107G	≤ -4.2
U9A C32A U55G G88U U109A	≤ -4.2
U9A A21U U33C G46A C57U A91C G94A	≤ -4.2
C8A C54U C75G G92A A98G A106U	≤ -4.2
C8A A29C C36A U55A A66U G86A C87G	≤ -4.2
C8A A66C G83U G92C U104A C114A	≤ -4.2
C8A A17U A40C C116U	≤ -4.2

Variant	polymerase ribozyme fitness (log ratio)
C8A A19C C51A G74A G84A C96G C103U A115U U134G U139G	≤ -4.2
C8A C57U G67C C95A A97G U151A	≤ -4.2
U9C A21C G25A G84A U109C G141A	≤ -4.2
C8G C10U U61G C87U U90A A97C A98U U146C	≤ -4.2
C8A A91C G143A U145G	≤ -4.2
C8U A41C U44A G46A A47G G50C C95U U135G G141U	≤ -4.2
C8A U9C G11U A24U G50C C57U G58U C87G U90A G94A U127G	≤ -4.2
U9A C14U G83A U135G	≤ -4.2
U7G C27A G42A C76A A89U G92C	≤ -4.2
U9C C18G A24C	≤ -4.2
U9C A40C A41G A47C U55A U82G U101G U102G U146C	≤ -4.2
C8G C10A A29C A30C A41U A52C	≤ -4.2
C8A A49C G80C G92A A106U A113C C118U G141U G143U C149G	≤ -4.2
C8U A142G C149G	≤ -4.2
U7G U56A C76A G84A G128A	≤ -4.2
C8G U82A C85A A91U C96U G117C	≤ -4.2
U9C A17U A30G G42C C51A C87U	≤ -4.2
C8A C27U U44G A49C C72G C79A G92A G143U	≤ -4.2
C8U G50U C85U U127A	≤ -4.2
U9A A19U A26U C27G C36G U90G G124C	≤ -4.2
U9C U53A G58U A60C A66C A147C	≤ -4.2
C8G G11U A19U G83A G88U G94A A107G	≤ -4.2
C8U A26G C35U C57U A66U G86A C114U	≤ -4.2
C8A A28U A91C	≤ -4.2

Variant	polymerase ribozyme fitness (log ratio)
C8A C93G	≤ -4.2
U9C U44A A73U G80C C93U	≤ -4.2
C8G C38U A41G C93U U102G G117C G124C U145G U146A	≤ -4.2
C8U A17C A22C A64U A66G G94C	≤ -4.2
U9A A47C	-4.13
U7G G83C G88U G152A	≤ -4.2
C8G U13C A16G A52G G83A U101G G126A	≤ -4.2
C8A C75A G88A U145G A150G	≤ -4.2
U9A U33C A49C C75U G80C U139G U146G A147G	≤ -4.2
C8A A20U A40U U44G G67U G71U C93G A113G U148G	≤ -4.2
C8A U13A A40C G62A G71U G92U	≤ -4.2
U7G U102G	≤ -4.2
C8G C57U G59A C69G G88U C96G A120U	≤ -4.2
U9A A12C A20G C43G A73U C87A C103G U127G C149A	≤ -4.2
C8A G11A U13C U56C U78G G80A G84C	≤ -4.2
C8G A28U A29C U53A C57U C69U	≤ -4.2
C8U C10G C27G G88C	≤ -4.2
C8U A17G G84U G133C	≤ -4.2
U9C A12U C27G G48A G74A G88A	≤ -4.2
C8U A16U A49C A73C C85U C108G	≤ -4.2
C8A C27U U56C U111C A138G	≤ -4.2
C8A A16C U55A G81A C96U	≤ -4.2
C8A A41G	-4.12
